# Reference: the supplement of paper PMC8728848
# The list shows a part of the results.
# Tests used:
# Experiment in all cases: glycan array binding signal (z-score within array); higher = stronger binding
# Conditions in all cases: glycan notation: IUPAC condensed, linker removed; mutation: Y228W
# [1] = molecular target: Gal(b1-4)GlcNAc(b1-3)Gal(b1-4)GlcNAc(b1-2)Man(a1-3)[Gal(b1-4)GlcNAc(b1-3)Gal(b1-4)GlcNAc(b1-2)Man(a1-6)]Man(b1-4)GlcNAc(b1-4)[Fuc(a1-6)]GlcNAc
# Outline: (§1)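 Columns mapping to the same glycan were averaged after glycan names were converted to IUPAC-condensed notation. The data come from 3228 arrays in the Consortium for Functional Glycomics database, limited to those with an available protein sequence. Binding is reported as a within-array Z-score averaged across arrays of one protein sequence and across linkers.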
# [2] = molecular target: Gal(b1-4)GlcNAc(b1-3)Gal(b1-4)GlcNAc(b1-2)[Gal(b1-4)GlcNAc(b1-3)Gal(b1-4)GlcNAc(b1-6)]Man(a1-6)[Gal(b1-4)GlcNAc(b1-3)Gal(b1-4)GlcNAc(b1-2)Man(a1-3)]Man(b1-4)GlcNAc(b1-4)GlcNAc
# Outline: as §1
# [3] = molecular target: Gal(b1-4)GlcNAc(b1-3)Gal(b1-4)GlcNAc(b1-2)[Gal(b1-4)GlcNAc(b1-3)Gal(b1-4)GlcNAc(b1-6)]Man(a1-6)[Gal(b1-4)GlcNAc(b1-3)Gal(b1-4)GlcNAc(b1-2)Man(a1-3)]Man(b1-4)GlcNAc(b1-4)[Fuc(a1-6)]GlcNAc
# Outline: as §1
# [4] = molecular target: Gal(b1-4)GlcNAc(b1-3)Gal(b1-4)GlcNAc(b1-3)Gal(b1-4)GlcNAc
# Outline: as §1
# [5] = molecular target: Gal(b1-4)GlcNAc(b1-3)Gal(b1-4)GlcNAc(b1-3)Gal(b1-4)GlcNAc(b1-2)Man(a1-3)[Gal(b1-4)GlcNAc(b1-3)Gal(b1-4)GlcNAc(b1-3)Gal(b1-4)GlcNAc(b1-2)Man(a1-6)]Man(b1-4)GlcNAc(b1-4)GlcNAc
# Outline: as §1
# [6] = molecular target: Gal(b1-4)GlcNAc(b1-3)Gal(b1-4)GlcNAc(b1-3)Gal(b1-4)GlcNAc(b1-2)Man(a1-3)[Gal(b1-4)GlcNAc(b1-3)Gal(b1-4)GlcNAc(b1-3)Gal(b1-4)GlcNAc(b1-2)Man(a1-6)]Man(b1-4)GlcNAc(b1-4)[Fuc(a1-6)]GlcNAc
# Outline: as §1
# [7] = molecular target: Gal(b1-4)GlcNAc(b1-3)Gal(b1-4)GlcNAc(b1-3)Gal(b1-4)GlcNAc(b1-2)[Gal(b1-4)GlcNAc(b1-3)Gal(b1-4)GlcNAc(b1-3)Gal(b1-4)GlcNAc(b1-6)]Man(a1-6)[Gal(b1-4)GlcNAc(b1-3)Gal(b1-4)GlcNAc(b1-3)Gal(b1-4)GlcNAc(b1-2)Man(a1-3)]Man(b1-4)GlcNAc(b1-4)[Fuc(a1-6)]GlcNAc
# Outline: as §1
# [8] = molecular target: Gal(b1-4)GlcNAc(b1-3)Gal(b1-4)GlcNAc(b1-3)Gal(b1-4)GlcNAc(b1-3)Gal(b1-4)GlcNAc(b1-2)Man(a1-3)[Gal(b1-4)GlcNAc(b1-3)Gal(b1-4)GlcNAc(b1-3)Gal(b1-4)GlcNAc(b1-3)Gal(b1-4)GlcNAc(b1-2)Man(a1-6)]Man(b1-4)GlcNAc(b1-4)GlcNAc
# Outline: as §1
# [9] = molecular target: Gal(b1-4)GlcNAc(b1-3)Gal(b1-4)GlcNAc(b1-3)Gal(b1-4)GlcNAc(b1-3)Gal(b1-4)GlcNAc(b1-2)Man(a1-3)[Gal(b1-4)GlcNAc(b1-3)Gal(b1-4)GlcNAc(b1-3)Gal(b1-4)GlcNAc(b1-3)Gal(b1-4)GlcNAc(b1-2)Man(a1-6)]Man(b1-4)GlcNAc(b1-4)[Fuc(a1-6)]GlcNAc
# Outline: as §1
# [10] = molecular target: Gal(b1-4)GlcNAc(b1-3)Gal(b1-4)GlcNAc(b1-3)Gal(b1-4)GlcNAc(b1-3)Gal(b1-4)GlcNAc(b1-2)[Gal(b1-4)GlcNAc(b1-3)Gal(b1-4)GlcNAc(b1-3)Gal(b1-4)GlcNAc(b1-3)Gal(b1-4)GlcNAc(b1-6)]Man(a1-6)[Gal(b1-4)GlcNAc(b1-3)Gal(b1-4)GlcNAc(b1-3)Gal(b1-4)GlcNAc(b1-3)Gal(b1-4)GlcNAc(b1-2)Man(a1-3)]Man(b1-4)GlcNAc(b1-4)[Fuc(a1-6)]GlcNAc
# Outline: as §1
# [11] = molecular target: Gal(b1-4)GlcNAc(b1-3)Gal(b1-4)GlcNAc(b1-3)Gal(b1-4)GlcNAc(b1-3)Gal(b1-4)GlcNAc(b1-3)Gal(b1-4)GlcNAc(b1-2)Man(a1-3)[Gal(b1-4)GlcNAc(b1-3)Gal(b1-4)GlcNAc(b1-3)Gal(b1-4)GlcNAc(b1-3)Gal(b1-4)GlcNAc(b1-3)Gal(b1-4)GlcNAc(b1-2)Man(a1-6)]Man(b1-4)GlcNAc(b1-4)GlcNAc
# Outline: as §1
# [12] = molecular target: Gal(b1-4)GlcNAc(b1-3)Gal(b1-4)GlcNAc(b1-3)Gal(b1-4)GlcNAc(b1-3)Gal(b1-4)GlcNAc(b1-3)Gal(b1-4)GlcNAc(b1-2)Man(a1-3)[Gal(b1-4)GlcNAc(b1-3)Gal(b1-4)GlcNAc(b1-3)Gal(b1-4)GlcNAc(b1-3)Gal(b1-4)GlcNAc(b1-3)Gal(b1-4)GlcNAc(b1-2)Man(a1-6)]Man(b1-4)GlcNAc(b1-4)[Fuc(a1-6)]GlcNAc
# Outline: as §1
# [13] = molecular target: Gal(b1-4)GlcNAc(b1-3)Gal(b1-4)GlcNAc(b1-3)Gal(b1-4)GlcNAc(b1-3)Gal(b1-4)GlcNAc(b1-3)Gal(b1-4)GlcNAc(b1-2)[Gal(b1-4)GlcNAc(b1-3)Gal(b1-4)GlcNAc(b1-3)Gal(b1-4)GlcNAc(b1-3)Gal(b1-4)GlcNAc(b1-3)Gal(b1-4)GlcNAc(b1-6)]Man(a1-6)[Gal(b1-4)GlcNAc(b1-3)Gal(b1-4)GlcNAc(b1-3)Gal(b1-4)GlcNAc(b1-3)Gal(b1-4)GlcNAc(b1-3)Gal(b1-4)GlcNAc(b1-2)Man(a1-3)]Man(b1-4)GlcNAc(b1-4)[Fuc(a1-6)]GlcNAc
# Outline: as §1
# [14] = molecular target: Gal(b1-4)GlcNAc(b1-3)Gal(b1-4)GlcNAc(b1-3)Gal(b1-4)GlcNAc(b1-3)Gal(b1-4)GlcNAc(b1-3)Gal(b1-4)GlcNAc(b1-3)Gal(b1-4)GlcNAc(b1-2)Man(a1-3)[Gal(b1-4)GlcNAc(b1-3)Gal(b1-4)GlcNAc(b1-3)Gal(b1-4)GlcNAc(b1-3)Gal(b1-4)GlcNAc(b1-3)Gal(b1-4)GlcNAc(b1-3)Gal(b1-4)GlcNAc(b1-2)Man(a1-6)]Man(b1-4)GlcNAc(b1-4)GlcNAc
# Outline: as §1
# [15] = molecular target: Gal(b1-4)GlcNAc(b1-3)Gal(b1-4)GlcNAc(b1-3)GalNAc
# Outline: as §1
binder,measurement,setting,value
"Epa1-NP-mutant-Y228W (Candida glabrata), Q6VBJ0 (protein) MILNPALFLNKCVCIYTTLILLLLTNGGYATSSNDISLASKDPTTFPLGCSPDITTPKKGLSMELYSYDFRKKGSYPCWDAAYLDPNYPRTGYKSHRLLAKVDGVTGNINFYYHATKGCTPQLGHLPASYNYPKPLTMTNFTMLLYGYFRPKVTGFHTFTISADDLLFVNFGAGNAFDCCRRDSSADHFGNYQAYAIWGSKTAKDELTVHLDAGVYYPIRLFYNNREWDGALSFTFKTESNENTVSDFSEYFFSLDDTEEGCPGLISYDSSCASVKTSKIIGIDYHTETPNENLVPITKTIYHLGIPCTGTTTTPLCGSGFYDPLANKCVTINTSSTSSVTKTTSHTTSKEVSFHSSISSQKTLIPKSIPSPYGPIKSQSIPTEMETSSEISSSEYAFSDVISTPSHSPYTKKHSSLNSSSYTSTVIHSLTSYSISQGIFSTSLSEQNITSKSSTDKFSTATSMSNNITQSSIIISQFSTNNENYTTTSMHTSSDKISTETLNNSISTTTSILFSNSSTILKNNTTIISSDKDTHYHPVNPTIVCSTNKTEIICASITQPSISNSNNHWSSSVLKFNSTTVRSTLPSSAGSNETSINVPFSSSTESNTSTSSTSTSNSKMVRSTLPSSAGSNETSISVPFSSSTESNTSTSSTSTSNSKMVRSTLPSSAGSNETSINVPFSSSTESNTSTSSTSTSNSKTVRSTPFSSAGIIMTSLSQRNNKSASSYASSNSKCYNTADSCRKVHSTPSYLLTSSYTSEGVDYDCSLVSTKLKINDTNCVNNKHTTKSCLKTSVTTTIPTLEIKTARKSSSNTIGLHSYPTSSPNKSISSAPIIGYISSFKTIKTASPSYQTSDLTTITTITSLNNPGSTAVENTHESNDKSRKTSSNDISSKHSVIKETKDAVESSNKSHQTNTLKCSSIIIASSSHNSYESLGGTTLTLTLSKVYSPQNNDTLPFLEISEVNPSRTVLPESSKMMQYLTSTEERNKTARNTIATNIVSISTFHFEGEGNAIRMGYTQLLLMLIGIIVMNIGT",glycan array binding signal (z-score),[1],0.511
same,glycan array binding signal (z-score),[2],1.45
same,glycan array binding signal (z-score),[3],2.98
same,glycan array binding signal (z-score),[4],-0.34
same,glycan array binding signal (z-score),[5],0.318
same,glycan array binding signal (z-score),[6],0.589
same,glycan array binding signal (z-score),[7],3.05
same,glycan array binding signal (z-score),[8],0.293
same,glycan array binding signal (z-score),[9],0.548
same,glycan array binding signal (z-score),[10],1.32
same,glycan array binding signal (z-score),[11],1.78
same,glycan array binding signal (z-score),[12],0.116
same,glycan array binding signal (z-score),[13],1.48
same,glycan array binding signal (z-score),[14],0.397
same,glycan array binding signal (z-score),[15],-0.018
